# Data: the supplement of paper PMC3334620
# Over roughly 33,000 sequences, “E-score (-0.5 to 0.5)” has its median near -0.035; the highest 2% begin near 0.35. The list shows a part of the results.
# Target: T1, Pdr3 (UniProt P33200)
# T1 sequence: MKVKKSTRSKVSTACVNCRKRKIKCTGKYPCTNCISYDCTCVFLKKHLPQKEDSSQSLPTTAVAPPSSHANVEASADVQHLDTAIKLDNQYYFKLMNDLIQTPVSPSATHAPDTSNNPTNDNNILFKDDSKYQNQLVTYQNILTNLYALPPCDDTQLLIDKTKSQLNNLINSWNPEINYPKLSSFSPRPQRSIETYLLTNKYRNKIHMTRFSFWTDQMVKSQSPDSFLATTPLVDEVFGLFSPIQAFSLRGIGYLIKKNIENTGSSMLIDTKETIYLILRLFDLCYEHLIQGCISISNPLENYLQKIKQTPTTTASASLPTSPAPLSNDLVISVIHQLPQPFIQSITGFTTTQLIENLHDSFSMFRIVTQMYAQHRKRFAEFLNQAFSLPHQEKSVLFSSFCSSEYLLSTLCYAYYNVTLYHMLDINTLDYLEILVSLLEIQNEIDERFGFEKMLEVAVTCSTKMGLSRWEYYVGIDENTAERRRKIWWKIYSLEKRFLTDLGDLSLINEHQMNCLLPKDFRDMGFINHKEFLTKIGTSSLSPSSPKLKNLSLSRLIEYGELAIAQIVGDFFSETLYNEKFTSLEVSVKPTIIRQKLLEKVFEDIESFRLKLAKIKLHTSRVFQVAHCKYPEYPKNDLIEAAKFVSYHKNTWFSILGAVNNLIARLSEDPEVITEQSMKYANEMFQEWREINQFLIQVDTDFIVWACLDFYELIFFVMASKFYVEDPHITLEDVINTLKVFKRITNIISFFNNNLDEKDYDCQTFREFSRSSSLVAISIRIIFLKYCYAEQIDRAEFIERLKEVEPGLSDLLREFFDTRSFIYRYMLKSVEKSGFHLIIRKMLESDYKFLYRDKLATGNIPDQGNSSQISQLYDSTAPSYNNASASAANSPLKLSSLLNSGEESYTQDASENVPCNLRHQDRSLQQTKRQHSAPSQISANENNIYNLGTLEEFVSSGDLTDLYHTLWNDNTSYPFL
# Experiment: PBM E-score (8-mer binding enrichment) (E-score (-0.5 to 0.5)); higher = stronger / more preferred TF binding; most listed sequences are background and not binding sites
# Conditions: protein concentration: 200 nM; construct: GST-full length
# Method in brief: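 E-scores (a modified Wilcoxon-Mann-Whitney statistic) were assigned by the Universal PBM Analysis Suite to every ungapped eight-base word pooled with its reverse complement. The input came from universal all-10-mer Agilent arrays made double-stranded by primer extension and probed with GST-tagged yeast transcription factors at about 100-200 nM. Fluorescent anti-GST detected bound protein, and masliner normalised the scans.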
row,Sequence,PBM E-score
1,CATGTCCA,0.0313
2,GTCGCGCA,0.0751
3,CTACCCAA,-0.193
4,CTACAAAG,-0.116
5,GGCCTGAA,-0.112
6,GGAAACCA,0.122
7,ACTTGTCG,0.0857
8,CAATCAAC,0.0774
9,AGTTTCTC,-0.00229
10,AAATGTAA,0.0762
11,ACAGCGTA,-0.09
12,GAAGGACA,0.0636
13,ACTCTACG,-0.176
14,AACAGGCG,-0.0423
15,GCGTGGCA,-0.096
16,ATAATGTA,-0.164
17,CAGTGTTA,0.0977
18,GATCGACC,0.0705
19,ACCCGACC,0.101
20,TAGGGCAA,-0.108
21,CAGTCATA,-0.137
22,CCGCTTGA,0.184

row,Sequence,PBM E-score
1,CAGCTATG,-0.255
2,CATGGACA,-0.154
3,GACCCAAA,-0.0474
4,TAAGTGAA,-0.112
5,CGCCACCC,-0.0704
6,GGCAAGAC,-0.0278
7,ATCACCTG,-0.061
8,GCCCTCCC,-0.0721
9,AGCGATAT,-0.0117
10,CAAAATAC,-0.0143
11,CCAATTGA,-0.0229
12,GTTATTCA,-0.187
13,ATGCACTA,-0.186
14,ATGGACAT,0.0367
15,CCTCTTTA,-0.258
16,GTAGTGTA,-0.214
17,ACCATTTC,0.0064
18,CCCGTAAG,-0.127
19,AACCCATC,-0.0395
20,ACTCTGCA,-0.125
21,GCGAGCCA,-0.0301
22,CAGATCGG,0.228

row,Sequence,PBM E-score
1,CGTACAGC,0.0556
2,ATTATTGG,0.114
3,GCTAAAGC,-0.221
4,CCTAGATC,-0.201
5,ACCTGCGC,0.0443
6,AGGGACGC,-0.162
7,AGGCATCG,-0.0625
8,AGGCCCTC,-0.0799
9,AACGAGAT,0.00769
10,CCAAGTAC,-0.165
11,AGAACGTC,-0.0698
12,GATTCTCA,-0.0218
13,CAGCCTTC,-0.0998
14,GTACTGGA,-0.139
15,AGTCCCGC,0.172
16,ACGTTGGA,-0.221
17,GAACGTAA,0.0202
18,CCCTAACA,0.05
19,AAGCTGTC,-0.208
20,GAGTCTGC,-0.238
21,CATCGTTA,-0.343
22,GACCTCAC,-0.0532

row,Sequence,PBM E-score
1,TCCCAGCA,0.107
2,CATTGTGG,0.0386
3,ATTCATTA,0.0307
4,CGGTATAA,0.0918
5,AACAGATT,-0.0762
6,AAGCCGTG,0.0354
7,CGGGTTTC,0.298
8,AGGCCTAC,-0.0777
9,ATATCCTG,-0.142
10,CGGTTAAC,0.107
11,GGCTTACC,0.0205
12,AAAACACT,-0.0926
13,CTTCACTC,-0.00119
14,CGTTAAGC,-0.0721
15,AAAACGCC,0.0384
16,GAGGGCCA,-0.046
17,CTGTTGCA,0.0903
18,AGACTGGC,-0.266
19,ACCTCTTC,-0.0577
20,GCTATCTA,-0.146
